From ChEMBL document CHEMBL4888484, “Replenishing the malaria drug discovery pipeline: Screening and hit evaluation of the MMV Hit Generation Library 1 (HGL1) against asexual blood stage Plasmodium falciparum ,using a nano luciferase reporter read-out” (2022)
The whole screen tested about 150,000 compounds, of which about 540 (0.36%) showed an effect of 50% or more. The list shows a part of the results.

Each molecule was assayed on Plasmodium falciparum (assay: Primary screen in NF54 nanoGlo assay, in single point, at 2uM, 72h; a lower Z score goes with more inhibition). Details: timepoint 72 hour.
Assay type: functional, Erythrocyte
With `CCCn1cnnc1CN(C)C(=O)NCc1ccc2nonc2c1` the “% Inhibition” value was -17% and the Z score was 1.85.
For `Cc1ccc(N2CCC(CNC(=O)c3ccoc3)CC2)nn1`, the “% Inhibition” value was -10% and the Z score was 1.61.
In the case of `CC(C)COC(=O)c1nc2ccccc2nc1Nc1ccc2c(c1)OCCO2`, the “% Inhibition” value is reported as 8% and the Z score is reported as -0.98.
`CC(C)OCc1cccc(-c2cc(C(=O)O)c(=O)n(C3CC3)c2)c1` was tested, and the “% Inhibition” value was -2% and the Z score was 0.21.
For `CCCCc1nc(C)cc(NCCNc2nc(N)nc3[nH]cnc23)n1`, the “% Inhibition” value was -15% and the Z score was 2.18.
`O=S1(=O)COCCN1CCOCc1ccccc1` was tested, and the “% Inhibition” value was -5% and the Z score was 0.77.
For `CN(Cc1ccccc1)C(=O)[C@H]1CCC[C@H]1NC(=O)c1ccncc1`, the “% Inhibition” value was 8% and the Z score was -1.06.
`CC1CCCC(C)N1C(=O)c1ccccc1NC(=O)C1CCCC1` (configuration not stated) was tested, and the “% Inhibition” value was -10% and the Z score was 1.24.
With `Cn1ccc2cc(CCNC(=O)C(N)=O)ccc21` the “% Inhibition” value was -6% and the Z score was 1.08.
`CC(C)(Oc1ccc2c(c1)CCC2)C(=O)NCCc1nc(O)cc(O)n1` was tested, and the “% Inhibition” value was 4% and the Z score was -0.52.
With `O=C(Nn1cnnc1)c1cccc2ccccc12` the “% Inhibition” value was -10% and the Z score was 1.25.
For `CCc1ccc(CN(C)CC(=O)Nc2cnn(C)c2C)nc1`, the “% Inhibition” value was -3% and the Z score was 0.46.
For `Cc1cc2nc3n(c(=O)c2n1CC(=O)NCCc1ccc(Cl)cc1)CCCCC3`, the “% Inhibition” value was -5% and the Z score was 0.55.
For `COc1ncnc2c1ccc(=O)n2CCCO`, the “% Inhibition” value was -10% and the Z score was 1.7.
With `Cc1ccc(/N=C(\Nc2ccc(C)cc2)[C@@H](C)CN(C(=O)c2ccccc2)c2ccc(C)cc2)cc1` the “% Inhibition” value was 4% and the Z score was -0.46.
`O=C1[C@@H]2Cc3c([nH]c4ccccc34)CN2C(=O)CN1Cc1ccc(Cl)cc1` was tested, and the “% Inhibition” value was -8% and the Z score was 1.02.
With `COc1ccc(NC(=O)c2cc(C)n(Cc3ccco3)c2C)cc1S(=O)(=O)N1CCOCC1` the “% Inhibition” value was -15% and the Z score was 2.34.
With `COc1ncccc1C(=O)Nc1nnc[nH]1` the “% Inhibition” value was 6% and the Z score was -0.92.
For `O=C(C(c1ccccc1)c1ccccc1)N1CC[C@H](S(=O)(=O)c2ccc(Cl)cc2)C1`, the “% Inhibition” value was 7% and the Z score was -1.13.
`CC1CCN(CCCS(C)(=O)=O)C1c1cccc(F)c1` (configuration not stated) was tested, and the “% Inhibition” value was 0% and the Z score was 0.07.
For `Cc1ccc(N(C)S(=O)(=O)c2cc(-c3nc(C)cs3)sc2C)cc1`, the “% Inhibition” value was -2% and the Z score was 0.2.
With `Cc1noc(C2(O)CCN(C(=O)C3CCCN3c3ccccc3)C2)n1` (configuration not stated) the “% Inhibition” value was -6% and the Z score was 0.66.
`Cc1c(C(C)C)nc(N)c(C#N)c1-c1c[nH]cn1` was tested, and the “% Inhibition” value was 5% and the Z score was -0.99.
In the case of `Cc1cccc(Cn2cnc3c2c(=O)n(C[C@H]2CCCO2)c(=O)n3-c2ccc(F)cc2F)c1`, the “% Inhibition” value is reported as -21% and the Z score is reported as 2.08.
For `CCN1CCN(C[C@@H]2CN(Cc3cccc(C(F)(F)F)c3)C[C@@H]2CO)CC1`, the “% Inhibition” value was -1% and the Z score was 0.23.
`Cc1noc(C)c1S(=O)(=O)N1CCCCCCn2c(nnc2-c2ccc(F)cc2)CC1` was tested, and the “% Inhibition” value was -7% and the Z score was 0.87.
For `OCC1CCCCCC1NCc1ccon1` (configuration not stated), the “% Inhibition” value was 4% and the Z score was -0.51.
For `Cn1ncnc1CCNc1cc(-c2ccccc2F)nc2ccnn12`, the “% Inhibition” value was -5% and the Z score was 0.61.
`CC(C)c1noc(CNC2CCOC2c2ccc(Cl)c(F)c2)n1` (configuration not stated) was tested, and the “% Inhibition” value was -6% and the Z score was 0.87.
With `CC(=O)N1CCCN(c2nnnn2CC(C)(C)C2CCCC2)CC1` the “% Inhibition” value was 5% and the Z score was -0.59.
With `O=C(c1cc(Cn2cc(Br)cn2)on1)N1CCNCC1` the “% Inhibition” value was 5% and the Z score was -0.64.
For `COC(=O)NCC(=O)Oc1ccc(OCC2CC2)cc1`, the “% Inhibition” value was -9% and the Z score was 0.86.
In the case of `Cc1ccc(C(C)NC(=O)N(CC(O)c2ccc(F)cc2)C2CC2)o1` (configuration not stated), the “% Inhibition” value is reported as -13% and the Z score is reported as 1.78.
In the case of `CC1CCCC1NC(=O)CCCNC(=O)OC(C)(C)C` (configuration not stated), the “% Inhibition” value is reported as -9% and the Z score is reported as 1.81.
With `COc1ccccc1-c1cc(O)n(-c2nc(C)cc(C)n2)n1` the “% Inhibition” value was 31% and the Z score was -3.53.
In the case of `COc1ccc(C2CC(=O)CC(c3ccc(OC)cc3)C2(C#N)C(N)=O)cc1` (configuration not stated), the “% Inhibition” value is reported as -8% and the Z score is reported as 1.22.
In the case of `C[C@@]1(c2ccc(Cl)s2)NC(=O)N(Cc2ccccc2)C1=O`, the “% Inhibition” value is reported as -5% and the Z score is reported as 0.85.
For `CCCn1ncc(C(=O)N2CCc3[nH]cnc3[C@H]2c2ccccn2)c1C`, the “% Inhibition” value was 1% and the Z score was -0.15.
With `O=C1C(NC2CCCn3ncnc32)CCN1c1ccc(F)c(Cl)c1` (configuration not stated) the “% Inhibition” value was -4% and the Z score was 0.49.
For `CN1CCC(N(Cc2ccncc2)C(=O)Nc2cccc(C#N)c2)CC1`, the “% Inhibition” value was -5% and the Z score was 0.66.
In the case of `CNc1nc(N2CCC(C(=O)O)(n3cccn3)CC2)nc2c1CCC2`, the “% Inhibition” value is reported as 14% and the Z score is reported as -1.82.
In the case of `CCS(=O)(=O)N1CCC[C@H]1C(=O)OC`, the “% Inhibition” value is reported as 7% and the Z score is reported as -1.35.
With `Cc1ccc(C)c(NS(=O)(=O)c2cc3[nH]c4c(c3cc2C)C(=O)CCC4)c1` the “% Inhibition” value was -12% and the Z score was 2.3.
With `CC(C)N(C[C@H]1CCCNC1)C(=O)OC(C)(C)C` the “% Inhibition” value was -8% and the Z score was 0.84.
`O=C(NCc1cnccn1)c1ccnc(N2CCN[C@H](c3ccccc3)C2)c1` was tested, and the “% Inhibition” value was 0% and the Z score was -0.08.
For `COCCNC(=O)CN(C)c1ncccc1F`, the “% Inhibition” value was -9% and the Z score was 0.8.
In the case of `Cc1ccc(C)c(C2CCN(C(=O)Nc3cnn(CCF)c3)CC2)c1`, the “% Inhibition” value is reported as 6% and the Z score is reported as -0.93.
`Cc1nn(CCO)c(C)c1-n1ccnc1-c1ccncc1` was tested, and the “% Inhibition” value was -11% and the Z score was 1.76.
For `CC(C)c1ccc(CCCNS(N)(=O)=O)cc1`, the “% Inhibition” value was 7% and the Z score was -0.97.
In the case of `CNC(=O)C[C@H](C)N(C)Cc1cc(OC)ccn1`, the “% Inhibition” value is reported as 0% and the Z score is reported as -0.01.
For `CC(C)c1ccc(C(=O)NC2CCOC(c3ccc(F)cc3)C2)nc1` (configuration not stated), the “% Inhibition” value was 3% and the Z score was -0.51.
`CCNC(=O)C[C@H]1Cc2ccccc2C2(CCN(C(=O)COC)CC2)O1` was tested, and the “% Inhibition” value was -2% and the Z score was 0.3.
In the case of `Nc1cc(C(=O)O)ccc1Br`, the “% Inhibition” value is reported as 1% and the Z score is reported as -0.15.
`O=c1c(S(=O)(=O)N2CCOCC2)cccn1Cc1cc(F)cc(F)c1` was tested, and the “% Inhibition” value was -6% and the Z score was 0.65.
For `O=C(Cn1nc(N2CCOCC2)c2ccccc2c1=O)Nc1ccc2c(c1)OCO2`, the “% Inhibition” value was -9% and the Z score was 1.28.
In the case of `CC(C)c1ccc(NC(=O)Cn2cnc3nc(N4CCOCC4)sc3c2=O)cc1`, the “% Inhibition” value is reported as -5% and the Z score is reported as 0.59.
